From PubChem BioAssay AID1745853 (National Center for Advancing Translational Sciences (NCATS), 2022) come the findings set out here.

Some of the results follow. These are further read-outs of the screen, such as a control signal, another cell line or another target. No call is given for them.

Common to all, as to experiment: Primary Screen for Target Class Profiling of Small Molecule Inhibitors of Methyltransferases
For test [1], the target named is Glycine N-methyltransferase (Homo sapiens) (UniProt Q14749). The following applies: purified enzyme, MTase-Glo SAH luminescence; measured here: GNMT inhibition; at 40 µM; stronger effect = lower value. In short, it runs like this: (§1)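 Each enzyme was assayed with SAM and its substrate. SAH formation detected by MTase-Glo luminescence; single-point 40 uM screen[…].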

For test [2], the target named is Guanidinoacetate N-methyltransferase (Homo sapiens) (UniProt Q14353). The following applies: purified enzyme, MTase-Glo SAH luminescence; measured here: GAMT inhibition; at 40 µM; stronger effect = lower value. In short, it runs like this: as §1
Test [3] has as its target Histamine N-methyltransferase (Homo sapiens) (UniProt P50135). The settings on record: purified enzyme, MTase-Glo SAH luminescence; measured here: HNMT inhibition; at 40 µM; stronger effect = lower value. In short, it runs like this: as §1
The target of test [4] is Nicotinamide N-methyltransferase (Homo sapiens) (UniProt P40261). The following applies: purified enzyme, MTase-Glo SAH luminescence; measured here: NNMT inhibition; at 40 µM; stronger effect = lower value. The procedure, abridged:
as §1

For test [5], the target named is Phenylethanolamine N-methyltransferase (Homo sapiens) (UniProt P11086). The settings on record: purified enzyme, MTase-Glo SAH luminescence; measured here: PNMT inhibition; at 40 µM; stronger effect = lower value. In short, it runs like this:
as §1
% is set by controls: 0 for no effect and ±100 for the full control effect.

As to `CC(=O)N1CCN(c2ccnc(-c3nnc(C)n3C3CCCCC3)c2)CC1`, the activity change, negative = inhibition was -1.34% in test [1]; -3.05% in test [2]; -0.52% in test [3]; -11.1% in test [4]; -10.5% in test [5].

Consider `CCOc1ccccc1CN1C(=O)c2c(C(=O)OC)ncn2CC1(C)C(=O)NC1CCCCCC1` (stereo not drawn), for which the activity change, negative = inhibition in test [1] was found to be 4.41%; in test [2], 0%; in test [3] it was 3.51%; in test [4], 3.44%; in test [5], 2.86%.

With `CCOCCCNC(=O)C1c2c(n(C)c3ccccc23)SCC(=O)N1c1ccc(Cl)cc1C` (stereo not drawn), the activity change, negative = inhibition worked out at 14.2% in test [1]; 2.72% in test [2]; 8.31% in test [3]; 7.47% in test [4]; 9.93% in test [5].

With `CCOC(=O)c1cc2n(n1)CC(C)(C(=O)NC1CCCC1)N(Cc1cccc(C)c1)C2=O` (stereo not drawn), the activity change, negative = inhibition in test [1] stood at 5.34%; in test [2], 0.093%; in test [3], 3.75%; in test [4] it was 7.29%; in test [5], 3.4%.

As to `O=C(NC1CC(c2nnc(CO)n2C2CC2)C1)c1cccn2cnnc12` (stereo not drawn), the activity change, negative = inhibition was -5.43% in test [1]; -13.5% in test [2]; -3.83% in test [3]; -11.9% in test [4]; -6.63% in test [5].

On to `COc1ccc(-c2c(C)nn3c4c(cnc23)C(=O)CC(c2ccc(C)cc2)C4)cc1` (stereo not drawn), for which the figures for the activity change, negative = inhibition in test [2], in test [4] and in test [5] were 9.99%, 1.87% and 8.74%, respectively.

As for `Cc1ccc(CN2CCCCCNC(=O)[C@@H]3CCC[C@@H]32)s1`, the activity change, negative = inhibition was -4.35% in test [1]; -1.44% in test [2]; 0.552% in test [3]; -16.4% in test [4]; -4.25% in test [5].

As for `COc1ccc(CN2C(=O)c3cc4occc4n3CC2(C)C(=O)NC2CCCCC2)cc1` (stereo not drawn), the activity change, negative = inhibition is -5.34% in test [1]; 4.01% in test [2]; 0.922% in test [3]; 2.61% in test [4]; -1.42% in test [5].

In the case of `N#Cc1ccc(C(=O)N2CCN3CCS(=O)(=O)N(C4CC4)C(=O)C3C2)cc1` (stereo not drawn), the activity change, negative = inhibition in test [1] is -5.97%; in test [2], -8.92%; in test [3], -2.91%; in test [4] it was -15.3%; in test [5], 7.43%.

For `COc1cccc(C2c3cccn3-c3sc4c(c3CN2C(=O)NCc2ccc(F)cc2)CCCC4)c1` (stereo not drawn), the activity change, negative = inhibition in test [1] is -1.36%; in test [2], 1.47%; in test [3] it was 7.51%; in test [4] it was 2.08%; in test [5] it was 5.98%.

For `COC(=O)NC1CCN(c2ccc3nnc(-c4ccccc4)n3n2)C1` (stereo not drawn), the activity change, negative = inhibition is -6.19% in test [1]; -1.78% in test [2]; -1.28% in test [3]; -8.21% in test [4]; -0.734% in test [5].

Turning to `CC(C)(Oc1nn(CC2CCOCC2)c2ccccc12)C(=O)NCc1ccncc1`, the activity change, negative = inhibition is -4.74% in test [1]; -2.61% in test [2]; -1.19% in test [3]; -8.32% in test [4]; 4.16% in test [5].

Regarding `C=C1CC[C@@H](O)[C@]2(C)C[C@H]3OC(=O)C(=C)[C@H]3CC12` (stereo partly drawn), the activity change, negative = inhibition in test [1] was -1.27%; in test [2], -1.9%; in test [3], 5.8%; in test [4], -14.5%; in test [5], 3.51%.

For the compound `CCCC1c2cccn2CCN1C(=O)NCc1ccc(C)cc1` (stereo not drawn), the activity change, negative = inhibition is 3.96% in test [1]; 3.09% in test [2]; 0.481% in test [3]; 2.65% in test [4]; 5.09% in test [5].

In the case of `c1cncc(-c2cc(-c3cccc(N4CCOCC4)c3)cn3cncc23)c1`, the activity change, negative = inhibition in test [1] is -26.6%; in test [2], -9.34%; in test [3], -17.2%; in test [4], -19.4%; in test [5], -28.1%.

As for `CSc1ccc(CNC(=O)CCn2ccc3cc(S(=O)(=O)N4CCCC4)ccc32)cc1`, the activity change, negative = inhibition in test [1] is 2.23%; in test [2] it was 0.678%; in test [3], 4.57%; in test [4] it was -1.29%; in test [5], 1.93%.

For the compound `CC1CCCCC1NC(=O)C1(C)Cn2c(ccc2-c2ccco2)C(=O)N1Cc1ccccn1` (stereo not drawn), the activity change, negative = inhibition is 0.141% in test [1]; 0.326% in test [2]; 10.6% in test [3]; 0.609% in test [4]; 1.4% in test [5].

Regarding `COc1ccc(Cn2c(=O)c3ccccc3n3c(-c4ccc(Cl)cc4)nnc23)cc1`, the activity change, negative = inhibition in test [1] is -1.23%; in test [2], 0.62%; in test [3] it was 2.15%; in test [4] it was -1.69%; in test [5], 0.101%.

As to `CC(C)(C)c1ccc(-c2cc(C[C@H]3CNCC[C@H]3CC(=O)N3CCOCC3)no2)cc1`, the activity change, negative = inhibition in test [1] was -6.98%; in test [2] it was -3.37%; in test [3] it was -8.63%; in test [4], -32.2%; in test [5], -5.04%.

For the compound `C[C@@]1(O)[C@H](O)[C@@H](CO)O[C@H]1n1cnc2c(=O)[nH]c(N)nc21`, the activity change, negative = inhibition is 3.1% in test [1]; -7.52% in test [2]; 7.92% in test [3]; -11.7% in test [4]; 2.19% in test [5].

Regarding `CN1C(=O)c2cc(C(=O)NCCN3CCCC3)nn2CC1(C)C(=O)NCc1ccc(F)cc1` (stereo not drawn), the activity change, negative = inhibition in test [1] was 0.045%; in test [2], 0%; in test [3], -1.12%; in test [4], -2.81%; in test [5], -3.23%.

On to `Cc1ccc(S(=O)(=O)c2nnn3c2nc(NCc2ccccc2)c2ccccc23)c(C)c1`, for which the activity change, negative = inhibition in test [1] was -4.82%; in test [2], -4.41%; in test [3] it was -12.6%; in test [4], -6.01%; in test [5], -17.2%.

In the case of `CC1=C(C(=O)Nc2cc3cn[nH]c3cc2F)C(c2ccc(C(F)(F)F)cc2)CC(=O)N1` (stereo not drawn), the activity change, negative = inhibition in test [1] is 5.73%; in test [2], 6.95%; in test [3], 10.6%; in test [4] it was -8.34%; in test [5] it was 3.58%.

As to `O=C(c1cccc(OC2CN(C3CCCCCC3)C2)c1)N1CCCC1`, the activity change, negative = inhibition in test [1] is -3.36%; in test [2], -6.05%; in test [3], -22.2%; in test [4], -15%; in test [5], -19.3%.

For `COc1ccc(-c2oc3ccc(C)cc3c(=O)c2O)cc1OC`, the activity change, negative = inhibition in test [1] was -65.2%; in test [2], 0%; in test [3], 6.5%; in test [4] it was 10.4%; in test [5], 1.47%.

With `Cc1ccc(CNC(=O)Cn2c(=O)c3ccc(Cl)cc3n3nncc23)cc1`, the activity change, negative = inhibition is -4.1% in test [1]; 6.1% in test [2]; 0.96% in test [3]; -0.452% in test [4]; -5.14% in test [5].

For `O=C(Nc1cccc(C(F)(F)F)c1)Nc1ccc(Br)cc1-c1nn[nH]n1`, the activity change, negative = inhibition was -41.2% in test [1]; -5.97% in test [2]; -9.95% in test [3]; -20.1% in test [4]; -15% in test [5].

As for `CC(C)NC(=O)N1CCNC[C@@H]1C(=O)N[C@@H](CC1CCCCC1)C(N)=O`, the activity change, negative = inhibition was -1.87% in test [1]; -2.85% in test [2]; -0.465% in test [3]; 0.187% in test [4]; -1.94% in test [5].

Regarding `C=CCC1(C(=O)O)CCCN(C(=O)c2cnn3c2CCCC3)C1` (stereo not drawn), the activity change, negative = inhibition in test [1] is -6.87%; in test [2], -7.9%; in test [3], -3.79%; in test [4], -17.5%; in test [5], -7.76%.

Turning to `CCCc1nn(-c2cccc(C)c2)c(=O)n1CC(=O)NCc1ccc(C)o1`, the activity change, negative = inhibition in test [1] is -11.1%; in test [2], -7.16%; in test [3], -3.43%; in test [4], -16.1%; in test [5] it was -7.97%.
